Experimental data reported in PubChem BioAssay AID485344 (National Center for Advancing Translational Sciences (NCATS), 2010).
Out of some 340,000 compounds screened, about 6,900 (2%) were called active. No stated cut-off is given here; in the data, active means inhibition above about 30%; inactive means below that, where a call was filed. This is a selection; strong and weak results do not stand in their true shares. Entries without a call were filed so in the source.

The compounds below were run against D(2) dopamine receptor (Homo sapiens) (UniProt P14416) (assay: HTS Assay for Allosteric Antagonists of the Human D2 Dopamine Receptor: Primary Screen for Antagonists). Conditions: HEK293 TREx D2 cells, calcium flux, dopamine EC80; at 10 µM; stronger effect = higher value.
Outline: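 Tetracycline-induced HEK293 TREx cells expressing D2 receptor forced-coupled to calcium signalling, loaded with no-wash calcium dye. Compounds added and calcium flux read 180 s, then dopamine added at EC80 and read a further 180 s.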
Further: 0% is about no effect.

Chain of UniProt P14416 (P14416 whole entry, looked up): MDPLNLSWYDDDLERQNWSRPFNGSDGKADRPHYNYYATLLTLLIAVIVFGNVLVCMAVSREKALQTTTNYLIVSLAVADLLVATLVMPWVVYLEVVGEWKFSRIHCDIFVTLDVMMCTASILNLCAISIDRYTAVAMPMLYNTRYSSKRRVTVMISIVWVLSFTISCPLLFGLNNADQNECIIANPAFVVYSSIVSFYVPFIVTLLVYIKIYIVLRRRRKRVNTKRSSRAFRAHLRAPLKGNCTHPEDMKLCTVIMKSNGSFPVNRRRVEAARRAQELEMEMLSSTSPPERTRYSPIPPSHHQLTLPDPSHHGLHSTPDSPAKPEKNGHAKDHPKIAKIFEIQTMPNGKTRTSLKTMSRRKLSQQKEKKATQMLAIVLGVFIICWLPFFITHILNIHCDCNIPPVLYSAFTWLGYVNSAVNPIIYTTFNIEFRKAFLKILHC

Row | Structure (SMILES) | inhibition
1 | Cc1ccc(Cl)cc1NS(=O)(=O)c1ccc2c(c1)NC(=O)CCS2 | -1.28%
2 | O=C(c1ccccc1)N1CCC(CC2CC(c3cccc(Br)c3)=NO2)(C(=O)NCC2CCCCC2)CC1 (stereo not drawn) | active: 30.7%
3 | O=C(O)c1ccc(N/N=C/c2ccnc3ccccc23)cc1 | active: 39.9%
4 | COc1ccc(OC)c(CCNC(=O)CCc2cn(Cc3cc(C)ccc3C)c3ccccc23)c1 | 16.9%
5 | Cc1ccc(-n2ncc(C(=O)NCc3cccs3)c2C2CCN(C(=O)OC(C)(C)C)CC2)cc1 | -3.9%
6 | Clc1ccc2c(c1)C(N1CCNCC1)=Nc1ccccc1O2 | active: 75.9%
7 | Cc1ccc(CNC(=O)CN2C(=O)CCn3nc(-c4ccccc4)cc32)cc1 | 11.8%
8 | COc1ccccc1NC(=O)C(C)Sc1nnc2ccc3ccccc3n12 (stereo not drawn) | -5.28%
9 | CCc1cccc2c(-c3ccccc3)nc(SCC(=O)Nc3ccccc3OC)nc12 | 9.18%
10 | CCCCOc1ccc(C(=O)NCCc2csc(-c3cccc(F)c3)n2)cc1 | -19.7%
11 | Cc1cccc(N2CCN(C(=O)C3CCCN(S(=O)(=O)c4ccc5c(c4)oc(=O)n5C)C3)CC2)c1C (stereo not drawn) | 0.859%
12 | COc1ccc(C(=O)C[n+]2cccc(C)c2C)cc1[N+](=O)[O-] | active: 58.6%
13 | Cc1oc2ccc(O)c(CN3CCCC3)c2c1C(=O)Nc1ccccc1 | -6.89%
14 | c1ccc(CN2CCN(c3nc4ccccc4n4cnnc34)CC2)cc1 | active: 67.8%
15 | Cc1ccc(CNC(=O)c2ccc3c(c2)c(C)c(C)n3Cc2ccccc2)o1 | 9.2%
16 | O=C(COc1ccccc1Cl)OCc1cc(=O)n2nc(C3CCCCC3)sc2n1 | -2.3%
17 | CN(C)CCCNc1oc(-c2ccccc2Cl)nc1S(=O)(=O)c1ccc(F)cc1 | active: 34.1%
18 | CCn1ccc2cc(S(=O)(=O)N3CCC(C(=O)NCCc4ccccc4Cl)CC3)ccc21 | -5.2%
19 | CC1CN(CCCOc2ccccc2-c2ccccc2)CC(C)O1 (stereo not drawn) | active: 49.7%
20 | Cc1cccc(C(=O)Nc2ccc(-c3nc4ncccc4o3)cc2C)c1 | -19.9%
21 | CC(C)OCCCNC(=O)c1cn(C)c2ccc(S(=O)(=O)N3CCCCCC3)cc2c1=O | 14.1%
22 | CCc1ccc(C(=O)c2cnc3ccc(F)cc3c2S(=O)(=O)c2ccccc2)cc1 | -2.04%
23 | CCOC(=O)C1C(=O)C=C(/C=C/c2ccc(N(C)C)cc2)CC1c1ccccc1 (stereo not drawn) | active: 33.3%
24 | Cc1cccc(S(=O)(=O)c2cn(Cc3ccccc3)c3cc(N4CCOCC4)c(F)cc3c2=O)c1 | -4.93%

Row | Structure (SMILES) | inhibition
25 | Cc1c2cnn(CC(=O)NCC(C)c3ccccc3)c(=O)c2c(C)n1Cc1cccc(Cl)c1 (stereo not drawn) | -7.63%
26 | COc1ccccc1Cn1cc(C(=O)c2ccc(Cl)cc2)c(=O)c2ccccc21 | 18.5%
27 | CC1Cc2cc(S(=O)(=O)NCCc3ccc(Cl)cc3)ccc2N1C(=O)C1CCC1 (stereo not drawn) | 7.98%
28 | CCc1ccccc1NC(=O)C1CCN(S(=O)(=O)c2ccccc2)CC1 | -26.3%
29 | CCOC(=O)C1CCN(C(=O)c2cc(S(=O)(=O)N3CCCCCC3)ccc2OC)CC1 | active: 37.9%
30 | COc1ccc(CNC(=O)C(C)Sc2nc(-c3ccccc3)cc(C(F)(F)F)n2)cc1 (stereo not drawn) | 0.296%
31 | COc1ccc(OCC(=O)N2CCC(c3nc4ccccc4s3)CC2)cc1 | -6.78%
32 | CCCCOc1ccc(C(=O)Nc2ccc3oc(-c4cccnc4)nc3c2)cc1 | 9.67%
33 | CCOc1cc(C(=O)NCc2ccc3c(c2)CCN3C(=O)c2ccc(F)cc2)cc(OCC)c1OCC | -10.1%
34 | O=C(NC1CCCC1)c1ccc(CSc2nc3ccncc3n2Cc2cccc(F)c2)cc1 | 8.41%
35 | CCOC(=O)CSC1=Nc2ccccc2C2=NC(CCC(=O)NCc3ccc(F)cc3)C(=O)N12 (stereo not drawn) | 0.142%
36 | O=C(NCc1cccc(F)c1)C1CCCN(C(=O)N2CCOc3ccccc32)C1 (stereo not drawn) | 5.83%
37 | COc1ccccc1C1CCN(Cc2cccc(C(=O)N3CCC(O)CC3)c2)CC1 | active: 75.5%
38 | Cc1ccc(C)c(NC(=O)C2CCCN(c3nc4ccccc4s3)C2)c1 (stereo not drawn) | -4.7%
39 | CC1CN(C(=O)N2CCC(C(=O)NCc3cccs3)CC2)c2cc(Cl)ccc2O1 (stereo not drawn) | 7.32%
40 | CCc1ccc(CNC(=O)C(C)n2ccc3cc(S(=O)(=O)N4CCCCCC4)ccc32)cc1 (stereo not drawn) | -1.93%
41 | Cc1cccc(NC(=O)CCS(=O)(=O)c2cccc3nsnc23)c1C | -6.78%
42 | COc1cccc(C(=O)NCCc2csc(-c3ccc(Cl)cc3)n2)c1 | -0.138%
43 | Cc1ccc(NC(=O)C2CCN(S(=O)(=O)c3ccc4[nH]c5c(c4c3)CCCCC5)CC2)cc1 | -0.686%
44 | COc1ccccc1N1CCN(c2ncnc3onc(-c4ccc(F)cc4)c23)CC1 | 19.2%
45 | COc1ccc(OC)c(NC(=O)c2c(N3CCCC3=O)c3cc(OC)ccc3n2C)c1 | 11%
46 | Cc1nc2nncn2c(Nc2ccccc2)c1C | -11.9%
47 | CCc1nn2c(=O)cc(COC(=O)c3cccc(NC(=O)c4cccs4)c3)nc2s1 | 4.12%
48 | CCOC(=O)c1c(-c2ccccc2)csc1NC(=O)c1cc(=O)c2ccc(C)cc2o1 | 0.394%
